Data reported in PubChem BioAssay AID1347073 (National Center for Advancing Translational Sciences (NCATS), 2019).
The campaign covered roughly 45,000 compounds. About 200 (0.44%) were called active. Not shown: some 7% with an inconclusive outcome. Calls follow the shape of the dose curve; as a rule, active = well fitted activation curve with a large enough effect; inconclusive = small, poorly fitted or top-dose-only effect; inactive = no such curve, though single readings can be large or run the other way. This is one part of the list.

Experiment: qHTS of TDP-43 Inhibitors: NCGC Sytravon Library Screen; also: 0% is about no effect; nearly all actives have a fitted effect of over 55% in size
Conditions: yeast TDP-43 toxicity rescue, BacTiter-Glo growth, 24 h; series mostly up to 46.1 µM; growth rescue (activation): at the top concentration
Procedure, shortened: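 TDP-43-expressing yeast, pregrown in raffinose, seeded at OD600 0.02 in galactose medium with compound for 24 hr at 30 deg C. Growth read by BacTiter-Glo luminescence, so rescue of toxicity appears as activation.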

Compound | growth rescue (activation)
Cc1ccccc1NC(=O)c1cc[n+]([O-])cc1 | inactive: 17.3%
O=C(CCN1C(=O)C2C3CCC(C3)C2C1=O)Nc1ccc(F)cc1 (stereo not given) | inactive: 7.34%
Cc1cc(Cl)ccc1NC(=S)NCc1ccccc1Cl | inactive: 22.3%
Cc1ccc(Cn2c(CN3CCC(C(=O)O)CC3)cc3ccccc32)cc1 | inactive: 22.6%
C=CCn1c(SCc2csc(C)n2)nc2sc3c(c2c1=O)CCCC3 | inactive: 47.9%
CC1(C)Cc2ccccc2C2=NNC(=O)C2=N1 | inactive: -3.11%
CCc1nc2c(c(=O)c3ccccc3n2C)c(=O)n1C1CCCCCC1 | inactive: 17.2%
Cc1ccc(-c2noc(C3CCCN(C(=O)c4ccc(Cl)cc4)C3)n2)o1 (stereo not given) | inactive: 12.6%
CC(C)(C)c1cc(C(=O)NCC(=O)OCC(=O)c2cccc([N+](=O)[O-])c2)cc(C(C)(C)C)c1 | inactive: -14.6%
Cc1ccc(NC(=S)N(CCN2CCOCC2)Cc2cc3cc4c(cc3[nH]c2=O)OCO4)cc1 | inactive: -7.56%
CCCCN(C=O)c1c(CC)nc2c(OCCC3CCCCC3)cccn12 | inactive: -0.967%
CCN(CC)S(=O)(=O)c1ccc(C(=O)NC2=NCCS2)cc1 | inactive: 16.2%
Cc1ccc(OCC(=O)N(C)C2CCCCC2)c([N+](=O)[O-])n1 | inactive: 11.7%
Cc1ccc2[nH]c(=O)c(CN(CCCO)C(C)c3nnnn3Cc3ccco3)cc2c1 (stereo not given) | inactive: 1.03%
CC1(C(=O)OCC(=O)Nc2ccc(S(=O)(=O)N3CCOCC3)cc2)CC1(Cl)Cl (stereo not given) | inactive: 0.431%
Cc1nn(-c2ccc(F)cc2)c(C)c1CN1CCN(CCC(C)C)C(CCO)C1 (stereo not given) | inactive: -3.95%
O=[N+]([O-])c1cc(S(=O)(=O)N2CCCC2)ccc1N/N=C/c1ccccn1 | inactive: 14.8%
Cc1nc(N2CCN(S(=O)(=O)c3ccc(F)cc3)CC2)c2c(-c3cccs3)csc2n1 | inactive: 5.39%
O=C(O)c1ccc2c(c1)C(=O)N(c1cccc3ccccc13)C2=O | inactive: -12.6%
NS(=O)(=O)c1ccc(CCNC(=O)CN2CCCCC2)cc1 | inactive: 9.85%
CCc1ccc(C(=O)NCc2cnn(C)c2)s1 | inactive: 9.24%
O=C(CNC(=O)C12CC3CC(CC(C3)C1)C2)N1CCN(S(=O)(=O)c2cccs2)CC1 | inactive: 14.1%

Compound | growth rescue (activation)
CN(C(=O)CSc1nc2ccccc2c(=O)n1-c1ccccc1Cl)C1CCS(=O)(=O)C1 (stereo not given) | inactive: 14.2%
COc1ccc(NC(=O)C2Cc3c(-c4cccc(C(C)=O)c4)ccnc3O2)cn1 (stereo not given) | inactive: 6.25%
COc1cccc(Cn2nc3c4cc(F)ccc4n(Cc4ccc(F)cc4)cc-3c2=O)c1 | inactive: -4.63%
CC(C)(C)NC(=O)C(c1ccc(O)cc1)N(C(=O)CCC(=O)Nc1nccs1)c1ccc(F)cc1 (stereo not given) | inactive: -4.26%
CC(C)(C)c1ccc(CCC2OCC(CN3CCOCC3)O2)cc1 (stereo not given) | inactive: -18.4%
COc1ccccc1NCC(=O)NC(=O)NC1CCCCC1 | inactive: 4.65%
O=C(O)Cc1nc(-c2cccnc2)sc1-c1ccc(Br)cc1 | inactive: 2.36%
COC(=O)/C=C1\SC(=NC(=O)c2ccc(-c3ccccc3)cc2)NC1=O | inactive: 23%
COC(=O)Nc1ccc([N+](=O)[O-])cc1OC | inactive: 18.2%
COCCNS(=O)(=O)c1ccc(Cl)c(C(=O)NC2CCN(Cc3ccccc3)CC2)c1 | inactive: -2.72%
O=C(NCc1ccc(F)cc1)c1cc(C2CCCCN2S(=O)(=O)c2ccccc2)on1 (stereo not given) | inactive: 21.3%
CCCCc1ccc(S(=O)(=O)NC(=O)C2(C)CCN2C(=O)Cc2ccccc2)cc1 (stereo not given) | inactive: 25.2%
COc1ccc(OCCSc2nc(C)nc3ccccc23)cc1 | inactive: 24.2%
O=C(O)c1ccc2c3c(cccc13)C(=O)N(c1ccccc1)C2=O | inactive: 6.05%
CN1CCN(c2nc(NCCOC34CC5CC(CC(C5)C3)C4)nc(OCC(F)(F)F)n2)CC1 | inactive: 23.3%
Cc1ccc(-c2nc(S(=O)(=O)c3ccc(C)cc3)c(SCC(=O)NCC3CCCO3)o2)cc1 (stereo not given) | inactive: 9.5%
COc1ccc(OCc2nnc(SCC(=O)Nc3nnc(C4CC4)s3)n2C)cc1 | inactive: 7.81%
O=[N+]([O-])c1ccccc1S(=O)(=O)N1CCN(Cc2ccsc2)CC1 | inactive: 1.55%
O=C(CCc1nnc(C2CCCCC2)o1)NCc1cccc(-n2cccn2)c1 | inactive: 6.07%
O=C(CCNC(=O)c1ccc([N+](=O)[O-])cc1)Nc1ccc(N2CCOCC2)cc1N1CCOCC1 | inactive: 9.1%
CC1(C)C(C=C(Cl)Cl)C1C(=O)Nc1ccc([N+](=O)[O-])cc1 (stereo not given) | inactive: -92.4%
Cc1cccc(NC(=S)N2CCC(C(=O)c3ccc(F)cc3)CC2)c1 | inactive: 13.6%

Compound | growth rescue (activation)
CC1(C)C2([N+](=O)[O-])CN3CC1([N+](=O)[O-])CN(C2)C3c1ccc(O)c(O)c1 (stereo not given) | inactive: 29.2%
Cc1ccc(C2C(C(=O)c3cccs3)=C(O)C(=O)N2c2ccc(S(N)(=O)=O)cc2)cc1 (stereo not given) | inactive: 12.2%
CN(c1ccc(C(=O)N2CCCCC2)cc1)S(=O)(=O)c1cccs1 | inactive: -16.7%
Cc1ccc(NC(=O)CCC(=O)NNC(=O)NC2CCCCC2)c(C)c1 | inactive: 11.3%
Cc1cccc(NC(=O)c2cccc(S(=O)(=O)Nc3ccccc3C(=O)O)c2)c1 | inactive: 14.5%
S=C(NCCc1ccccc1)N1CCN(C2CCCCC2)CC1 | inactive: 10.8%
CC1(C(=O)NCCC(F)(F)F)Cc2c(-c3ccccc3)ccnc2O1 (stereo not given) | inactive: -2.29%
O=C(O)c1c(Cl)c(Cl)c(Cl)c(Cl)c1C(=O)N1CCOCC1 | inactive: 9.08%
O=C1COc2ccc(S(=O)(=O)NCc3ccccc3)cc2N1 | inactive: 4.34%
O=C(COc1ccccc1[N+](=O)[O-])Nc1ccc(NC(=O)c2cc3ccccc3o2)cc1 | inactive: 12%
COC(=O)c1c(NC(=O)CCl)sc(C(=O)N2CCOCC2)c1C | inactive: 14.2%
Cc1ccccc1NC(=O)CSc1cn[nH]n1 | inactive: 18.5%
O=C(NCC1CCCO1)c1ccc(CS(=O)(=O)Cc2ccc(F)cc2)o1 (stereo not given) | inactive: -16.2%
O=C(Cc1coc(-c2ccc(F)cc2)n1)NCc1ccccc1 | inactive: 30%
O=C(NCCc1ccccc1)C1CCN(C2CCN(C(=O)CC3=CCCCC3)CC2)CC1 | inactive: 2.52%
COc1ccc(O)c(/C=N/n2c(-c3ccco3)csc2=Nc2cccnc2)c1 | inactive: 2.18%
Cc1nc2sccn2c(=O)c1S(=O)(=O)Nc1ccc(N2CCN(C(=O)C(C)C)CC2)cc1 | inactive: 4.06%
COC(=O)Nc1ccc(S(=O)(=O)Nc2ncccn2)cc1 | inactive: -5.98%
COc1cccc(N2CCN(C(=O)c3ccc(N4C(=O)NC5CC4(C)Oc4ccccc45)cc3)CC2)c1 (stereo not given) | inactive: 28.7%
CC(=O)Nc1ccccc1OCC(=O)N(Cc1ccccc1)C(C)C | inactive: -6.94%
CC(C(=O)Nc1ccc(F)c(F)c1F)N(C)CC(=O)Nc1ccccc1Br (stereo not given) | inactive: 30.6%
